Laboratory results: publication PMC12040169 (PLOS Biology, 2025)
This is one part of the list.

These compounds were tested on T1, C. trachomatis L2/434/Bu expressing GFP (CTL2-GFP). Conditions: total inclusion area; 28.5 h, 10 µM; inhibitor.
T1 construct: L2/434/Bu GFP intracellular growth in HeLa cells
Parameters: species or system HeLa; C. trachomatis total inclusion area by high-content imaging, normalised to DMSO
Procedure, shortened: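 High-content imaging followed the bulk GFP/resorufin measurement: fixed, Hoechst-stained cells were scored for GFP inclusions and host nuclei per well. Total inclusion area and count served as growth proxies, nuclei number as the viability proxy. MIC calculation matched the bulk assay.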

| Compound | % of control remaining |
| --- | --- |
| N#CCCSc1nnc(-c2cccnc2)n1Cc1ccccc1 [CBK267526] | 98.5328 |
| Cc1c(NC2CCN(c3ccc(C#N)cc3)C2=O)cnn1C1CCCC1 (centres unmarked) [CBK304735] | 70.7531 |
| O=C(Cn1c(-c2cccs2)cc2cccnc21)NCC1CC1 [CBK282553] | 111.31 |
| O=c1[nH]c2ccccc2n1CCCN1CCC(Cc2ccccc2)CC1 [CBK138318] | 90.6352 |
| COC(=O)CCc1ccc(Oc2ncc(C(F)(F)F)cc2Cl)cc1 [CBK161628] | 87.2851 |
| CCOc1ccc(S(=O)(=O)NCc2ccncc2)cc1NC(C)=O [CBK269527] | 86.9222 |
| CCOC(=O)C1CCCN1Cc1ccccc1 (centres unmarked) [CBK278278G] | 80.4345 |
| Cc1ccc(OCc2cc(C)on2)c(Br)c1 [CBK002837] | 88.3084 |
| COc1ccc(CCNC(=O)c2ccccc2N(C)S(C)(=O)=O)cc1 [CBK266833] | 107.686 |
| COc1ccc2[nH]cc(CCNC(=O)CCCN(C)C)c2c1 [CBK116202] | 106.981 |
| Cc1nc(NC(=N)Nc2ccccc2C(F)(F)F)[nH]c(=O)c1Cc1ccccc1 [CBK269083] | 98.3913 |
| O=C(Cc1cccs1)N1CCC(O)(c2cccnc2)CC1 [CBK283501] | 82.8613 |
| COC(=O)c1c(NC(=O)CC2Nc3ccccc3NC2=O)sc2c1CCC2 (centres unmarked) [CBK269307A] | 100.328 |
| O=C(NCC(=O)N1CCc2ccccc2C1)C1CCCCC1 [CBK306049] | 59.7058 |
| S=c1nc[nH]cc1-c1ccc(Br)cc1 [CBK005833] | 86.7205 |
| Cc1cc2nc(-c3ccccc3)[nH]c2cc1C [CBK086484] | 96.5819 |
| Cc1ccc(NC2=NC3(N=C(N)N2)C(=O)N(C)c2ccccc23)cc1 (centres unmarked) [CBK270157] | 76.1599 |
| Cc1nn(C)c(Cl)c1S(=O)(=O)Nc1ccnn1C [CBK062072] | 100.351 |
| C[C@@H]1CN(C(=O)c2cncn2C)C[C@H](C)O1 [CBK200370] | 118.019 |
| CCNc1nccnc1-c1ccc(O)cc1 [CBK088589] | 117.886 |
| Cc1cc(NC(=O)CN2CCC(CSc3ccccc3)C2)no1 (centres unmarked) [CBK306136] | 104.362 |
| COc1ccc(COc2nc3c(c(=O)n(C)c(=O)n3C)n2Cc2ccc(Cl)c(Cl)c2)cc1 [CBK268779] | 90.2253 |
| O=S(=O)(c1cccc2nsnc12)N1CCN(C2CCCCC2)CC1 [CBK268173] | 81.5093 |
| CCC(=O)Nc1ccc(O)cc1C(=O)O [CBK126818] | 89.6635 |
| Cc1cc(NS(=O)(=O)c2ccc(C(C)C)cc2)n[nH]1 [CBK044646] | 94.5558 |
| COc1ccc(Oc2cncc(OC3CCN(Cc4ccc(Cl)c(Cl)c4)C3)n2)cc1OC (centres unmarked) [CBK084391] | 71.2239 |
| CCOC(=O)N1CCN(CC(O)COc2cc(C)c(Cl)c(C)c2)CC1 (centres unmarked) [CBK033833C] | 96.5406 |

| Compound | % of control remaining |
| --- | --- |
| OC(CN1CCC(O)(c2ccc3c(c2)OCO3)CC1)c1ccc2c(c1)CCC2 (centres unmarked) [CBK286326] | 91.6433 |
| Cc1cccc(-c2n[nH]/c(=N/C(=O)c3ccccc3F)s2)c1 [CBK287957] | 102.382 |
| N#CCCCN1CCC(Oc2nccnc2OCc2ccc(Br)cc2F)CC1 [CBK153647] | 85.2768 |
| O=C(O)c1cccc(Sc2cc(C(F)(F)F)ccn2)c1 [CBK093590] | 84.5082 |
| CC(=O)c1cccc(NC(=O)CN(c2cc(Cl)ccc2Cl)S(=O)(=O)c2ccc(C)cc2)c1 [CBK268897] | 52.088 |
| COc1cccc(-c2nccnc2C2CCCN(S(=O)(=O)c3ccc(F)cc3)C2)c1 (centres unmarked) [CBK286138] | 79.6616 |
| O=C(c1cc(C2CC2)n[nH]1)N1CCn2cc(C(F)(F)F)nc2C1 [CBK284749] | 85.4948 |
| CC1CCN(C(=O)C2C3CCC4(CC(=O)c5ccccc5O4)C32)CC1 (centres unmarked) [CBK284872] | 112.87 |
| COc1cccc2cc(C(=O)NCC3COc4ccccc4O3)oc12 (centres unmarked) [CBK149791] | 95.5495 |
| CCC(C)(C)c1ccc(S(=O)(=O)Nc2n[nH]cc2Br)cc1 [CBK043734] | 92.8279 |
| CCN(CC)C(=O)c1ccsc1NS(=O)(=O)c1cccc2cccnc12 [CBK042317] | 88.5709 |
| CC(C)(C)OC(=O)N1CCN(Cc2ncc(-c3ccccc3)o2)CC1 [CBK306281] | 61.1438 |
| O=S(=O)(c1cccc(C(F)(F)F)c1)n1ccc2c(CN3CCC[C@@H]3CO)cccc21 [CBK116167T] | 73.9171 |
| CCCNc1cc(C)c(C#N)c2nc3ccccc3n12 [CBK288097] | 127.374 |
| O=C(O)C1CCCN(C(=O)NCc2cccc(C(F)(F)F)c2)C1 (centres unmarked) [CBK161345] | 91.2962 |
| O=C(CSc1nc2ccccc2s1)c1cccc([N+](=O)[O-])c1 [CBK262130] | 110.22 |
| CCCCOC(=O)c1ccccc1NC(=O)NCCc1cccs1 [CBK043573] | 90.4442 |
| CC(=O)Nc1nonc1OCCOc1nonc1NC(C)=O [CBK020227] | 64.8809 |
| O=C(CSc1nnnn1-c1cccnc1)NC1CCCCCC1 [CBK270092] | 114.165 |
| Cn1c(=O)n(Cc2ccc(Cl)cc2)c2cccnc21 [CBK282333] | 97.7607 |
| CC(NC(=O)c1ncoc1-c1ccccc1F)c1ccccn1 (centres unmarked) [CBK282402] | 102.778 |
| CCCCNC(=S)N[C@H]1CC[C@@]2(Cc3ccc(OC)cc3)CCN(C)[C@H]2C1 [CBK004258] | 40.0855 |
| O=C(Nc1cccc(C(F)(F)F)c1)N[C@H]1[C@H](O)[C@@H](N2CCCC2)[C@@H]2OC[C@H]1O2 [CBK288828] | 100.57 |
| NC(CCc1nc2ccccc2[nH]1)c1nc2ccccc2[nH]1 (centres unmarked) [CBK269970] | 106.612 |
| CCc1ccccc1NC(=O)CN1CCCCC1C(=O)O (centres unmarked) [CBK287179] | 98.7457 |
| OC1(c2cccnc2)CCCC2CN(Cc3c(F)cccc3F)CC21 (centres unmarked) [CBK284512] | 70.4323 |
